Results taken from the supplement of paper PMC4967469.

What was measured:
Experiment in all cases: Viability of human cancer cell lines after 72 h of drug (GDSC screen)
Epothilone B = compound: C/C(=C\c1csc(C)n1)[C@@H]1C[C@@H]2O[C@]2(C)CCC[C@H](C)[C@H](O)[C@@H](C)C(=O)C(C)(C)[C@@H](O)CC(=O)O1 [Epothilone B]; settings: top dose 0.032 µM; top dose inferred
Experimental: (§1)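 Human cancer cell lines in 384-well plates, medium with 10% serum, drug for 72 h over a 256-fold dose range (nine 2-fold or five 4-fold steps up to the top dose). Adherent lines were fixed and stained with the nucleic acid dye Syto60, suspension lines read with resazurin; signal relative to control wells, capped at 0 and 100%. One two-parameter sigmoid per drug and line, fitted in a mixed model over all curves with the slope shared within a line.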

Pyrimethamine = compound: CCc1nc(N)nc(N)c1-c1ccc(Cl)cc1 [Pyrimethamine]; settings: top dose 20 µM; top dose inferred
Experimental: as §1

PLX4720 = compound: CCCS(=O)(=O)Nc1ccc(F)c(C(=O)c2c[nH]c3ncc(Cl)cc23)c1F [PLX4720]; settings: top dose 10 µM
Experimental: as §1

Y-39983 = compound: C[C@@H](N)c1ccc(C(=O)Nc2ccnc3[nH]ccc23)cc1 [Y-39983]; settings: top dose 20 µM; top dose inferred
Experimental: as §1

PHA-793887 = compound: CC(C)CC(=O)Nc1n[nH]c2c1CN(C(=O)C1CCN(C)CC1)C2(C)C [PHA-793887]; settings: top dose 10.24 µM
Experimental: as §1

AZD-0530 = compound: CN1CCN(CCOc2cc(OC3CCOCC3)c3c(Nc4c(Cl)ccc5c4OCO5)ncnc3c2)CC1 [AZD-0530]; settings: top dose 2 µM
Experimental: as §1

TPCA-1 = compound: NC(=O)Nc1sc(-c2ccc(F)cc2)cc1C(N)=O [TPCA-1]; settings: top dose 20 µM
Experimental: as §1

[1] = screen: GDSC drug entry 1371, top dose inferred

Cell Line | AUC (Epothilone B) | IC50 (Epothilone B) [µM] | AUC (Pyrimethamine) | IC50 (Pyrimethamine) [µM] | AUC (PLX4720; screen: GDSC drug entry 1036) | IC50 (PLX4720; screen: GDSC drug entry 1036) [µM] | AUC (PLX4720; [1]) | IC50 (PLX4720; [1]) [µM] | AUC (Y-39983) | IC50 (Y-39983) [µM] | AUC (PHA-793887) | IC50 (PHA-793887) [µM] | AUC (AZD-0530) | IC50 (AZD-0530) [µM] | AUC (TPCA-1) | IC50 (TPCA-1) [µM]
SK-LMS-1 (soft tissue, adherent) | 0.342 | 0.000746 | 0.968 | > 20 | 0.944 | > 10 | 0.924 | > 10 | 0.935 | > 20 | 0.896 | > 10.2 | 0.987 | > 2 | 0.809 | 9.82
SK-MEL-1 (melanoma, suspension) | 0.993 | > 0.032 | 0.985 | > 20 | 0.573 | 0.959 | 0.838 | 5.51 | 0.992 | > 20 | 0.993 | > 10.2 | 0.989 | > 2 | 0.944 | > 20
SK-MM-2 (myeloma, suspension) | 0.815 | 0.0187 | 0.979 | > 20 | 0.986 | > 10 | 0.986 | > 10 | 0.869 | 19.8 | 0.851 | 8.38 | 0.987 | > 2 | 0.709 | 5.02
SK-N-DZ (neuroblastoma, adherent) | 0.704 | 0.00742 | 0.943 | > 20 |  |  | 0.974 | > 10 | 0.942 | > 20 | 0.988 | > 10.2 | 0.869 | 1.81 | 0.872 | 18.6
SK-N-FI (neuroblastoma, adherent) | 0.978 | > 0.032 | 0.986 | > 20 | 0.99 | > 10 | 0.988 | > 10 | 0.987 | > 20 | 0.977 | > 10.2 | 0.98 | > 2 | 0.896 | > 20
SK-PN-DW (Ewing sarcoma, adherent) | 0.454 | 0.00149 | 0.942 | > 20 | 0.906 | > 10 | 0.979 | > 10 | 0.905 | > 20 | 0.75 | 3.46 | 0.963 | > 2 | 0.623 | 2.76
SK-UT-1 (soft tissue, adherent) | 0.335 | 0.000731 | 0.979 | > 20 | 0.938 | > 10 | 0.98 | > 10 | 0.981 | > 20 | 0.908 | > 10.2 | 0.967 | > 2 | 0.987 | > 20
SLVL (B-cell lymphoma, suspension) | 0.725 | 0.00912 | 0.679 | 4.09 | 0.979 | > 10 | 0.972 | > 10 | 0.887 | > 20 | 0.483 | 0.575 | 0.985 | > 2 | 0.654 | 3.43
SNB75 (glioma, adherent) | 0.539 | 0.00268 | 0.866 | > 20 | 0.971 | > 10 | 0.973 | > 10 | 0.832 | > 20 | 0.921 | > 10.2 | 0.848 | > 2 | 0.899 | > 20

A lower IC50 marks a more sensitive line; where the fit passes the top or lowest dose, that dose stands as a limit. The AUC spans the tested range (256-fold, ending at the top dose) of the same fit: 1 means no effect, lower means more sensitive. For some of these results: Where the top dose is marked as inferred, it comes from the curve model; the source does not state it. For some of these results: An entry number marks a drug with two screens in the source, which often give different values.
